Assay results: patent US4076815A, “Quinoxaline compound and composition, process for preparing compound, and method of combatting cholera therewith” (Istituto Chemioterapico Italiano, S.p.A., priority 1977, dated 1978)

Tests used:
[1] = Acute toxicity in the guinea pig by esophageal administration; assay type: in vivo
[2] = Acute toxicity in the rabbit by esophageal administration; assay type: in vivo
[3] = Acute toxicity in the rat; conditions: for Dead/Treated within 21 days: first experiment; for Dead/Treated within 7 days: second experiment
[4] = tested on: five strains of vibrio cholerae; assay: Summary of effect on five strains of vibrio cholerae; conditions: 10 μg/ml of CO-1, five strains
[5] = Subacute toxicity in the mouse, gastric gavage 15 days; conditions: 24 hrs. after last dose

## Nc1nccc(C=Cc2c[n+]([O-])c3ccccc3[n+]2[O-])n1 [CO-1, 2-[2-(2-amino-4-pyrimidinyl)ethenyl]-quinoxaline 1,4-dioxide]
[1]; 500 mg/kg
  Dead/Treated within 21 days: 0/4
[1]; 1000 mg/kg
  Dead/Treated within 21 days: 1/4
[1]; 2000 mg/kg
  Dead/Treated within 21 days: 5/6
[1]; 4000 mg/kg
  Dead/Treated within 21 days: 6/6
[2]; 500 mg/kg
  Dead/Treated within 7 days: 0/2
[2]; 1000 mg/kg
  Dead/Treated within 7 days: 0/4
[2]; 2000 mg/kg
  Dead/Treated within 7 days: 0/2
[3]; female, endoperitoneal, 500 mg/kg
  Dead/Treated within 21 days: 2/4
[3]; female, esophageal, 4000 mg/kg
  Dead/Treated within 21 days: 0/4
  Dead/Treated within 7 days: 0/4
[3]; male, endoperitoneal, 500 mg/kg
  Dead/Treated within 21 days: 1/4
[3]; male, esophageal, 4000 mg/kg
  Dead/Treated within 21 days: 0/4
  Dead/Treated within 7 days: 0/4
[3]; female, intraperitoneal, 500 mg/kg
  Dead/Treated within 7 days: 0/4
[3]; male, intraperitoneal, 500 mg/kg
  Dead/Treated within 7 days: 2/4
[4]
  growth of the organisms after 48 hours: no growth of 3 of the organisms after 48 hours
[5]; CO-1 in adraganth gum
  SGOT: 132 Units/ml
[5]; CO-1 in water
  SGOT: 124 Units/ml
